Article PMC4336329 (PLoS ONE, 2015)
The whole screen tested about 310,000 compounds, of which about 14,000 (4.5%) showed an effect of 50% or more. Effects have a minus sign here. The list shows a part of the results.

target: human ether-à-go-go-related gene (hERG) potassium channel (human, UniProt Q12809); assay: primary screen, population patch clamp on CHO cells stably expressing hERG
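Also: peak tail current of the secondary pulse compared with the same well before compound.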

Sequence of human ether-à-go-go-related gene (hERG) potassium channel (Q12809 whole entry, looked up): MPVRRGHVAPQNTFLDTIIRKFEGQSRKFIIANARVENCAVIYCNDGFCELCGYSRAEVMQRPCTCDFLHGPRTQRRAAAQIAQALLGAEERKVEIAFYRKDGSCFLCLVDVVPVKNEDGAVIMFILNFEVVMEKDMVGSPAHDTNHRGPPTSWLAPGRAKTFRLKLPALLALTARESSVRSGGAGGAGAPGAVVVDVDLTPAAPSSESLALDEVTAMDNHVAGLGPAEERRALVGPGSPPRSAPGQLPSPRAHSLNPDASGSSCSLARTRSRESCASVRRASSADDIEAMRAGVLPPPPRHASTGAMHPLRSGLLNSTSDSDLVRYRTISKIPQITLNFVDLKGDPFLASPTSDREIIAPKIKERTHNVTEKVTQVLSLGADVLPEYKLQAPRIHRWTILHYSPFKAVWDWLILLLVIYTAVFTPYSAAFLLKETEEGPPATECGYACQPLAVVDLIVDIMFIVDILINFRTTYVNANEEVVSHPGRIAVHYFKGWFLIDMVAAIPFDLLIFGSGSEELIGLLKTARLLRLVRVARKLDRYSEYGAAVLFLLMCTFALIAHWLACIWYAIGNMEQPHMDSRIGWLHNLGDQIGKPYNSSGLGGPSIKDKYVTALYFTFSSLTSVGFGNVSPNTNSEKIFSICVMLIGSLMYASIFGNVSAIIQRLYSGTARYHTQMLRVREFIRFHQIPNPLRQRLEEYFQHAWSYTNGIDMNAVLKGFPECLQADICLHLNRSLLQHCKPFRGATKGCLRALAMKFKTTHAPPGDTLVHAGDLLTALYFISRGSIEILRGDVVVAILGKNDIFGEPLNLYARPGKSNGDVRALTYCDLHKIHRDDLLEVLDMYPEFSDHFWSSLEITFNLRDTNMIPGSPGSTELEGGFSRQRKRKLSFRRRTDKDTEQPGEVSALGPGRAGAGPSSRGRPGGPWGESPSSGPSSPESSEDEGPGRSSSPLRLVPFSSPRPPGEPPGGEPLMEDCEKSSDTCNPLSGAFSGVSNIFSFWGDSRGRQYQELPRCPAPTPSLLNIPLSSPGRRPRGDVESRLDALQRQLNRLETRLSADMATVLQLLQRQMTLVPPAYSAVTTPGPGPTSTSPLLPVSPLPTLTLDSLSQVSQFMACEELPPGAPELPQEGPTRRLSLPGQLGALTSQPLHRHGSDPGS

Compound	hERG current change (%, negative = inhibition) at 10uM [%]
O=C(CNC(=O)c1ccco1)N=Nc1c(O)[nH]c2ccc(Br)cc12	16.8
CCc1nc(C)cn1S(=O)(=O)c1ccc(Cl)c(Cl)c1Cl	-10.7
CCOC(=O)C1CCCN(c2cc(NCCCO)c([N+](=O)[O-])c3nonc23)C1 (centres unmarked)	-40.7
CCOc1ccc(OCc2nnc(SCC(=O)NC3CCS(=O)(=O)C3)n2-c2ccc(Cl)cc2)cc1 (centres unmarked)	-40.2
CCCc1ncc(CN2CCCC(C(=O)Nc3ccc(-c4cccc(OC)c4)cc3)C2)cn1 (centres unmarked)	-39.7
Cc1ccc(/C=C/C(=O)OCC(=O)N2CC(=O)Nc3ccccc32)o1	-2.76
CC1CCc2[nH]c3ccc(C(=O)N(C)CC(=O)Nc4cccc(F)c4)cc3c2C1 (centres unmarked)	-12.5
CCOC(=O)c1[nH]c2ccc(C)cc2c1N=C(C)N(C)C	-9.99
Cc1cc(C)nc(NC(=O)c2c(F)c(F)c(F)c(C(=O)Nc3cc(C)cc(C)n3)c2F)c1	-8.14
Cc1oc(/N=C/c2ccccc2O)c(C#N)c1C	17.1
CCOc1cc(C2CC(=O)NC(SCC)=C2C#N)ccc1O (centres unmarked)	3.61
CC(=O)c1cccc(NC(=S)NC(=O)c2cncc(Br)c2)c1	6.51
Cl.OC(COc1ccc2c(c1)OCO2)CN1CCN(c2ccccc2)CC1 (centres unmarked)	-2.44
CCOc1ccc(N2C(=O)Nc3ccc(Br)cc3C2(O)C(=O)NCCCN(C)C)cc1 (centres unmarked)	12.3
Cc1c(C(=O)N2CCc3ccccc3C2)sc2nc(-c3ccccc3)cn12	-15.3
CCOC(=O)c1nn(-c2ccccc2F)c2nc(Nc3ccccc3)cc(=O)n12	8.14
C[C@H](NC(=O)c1nc[nH]c1C(=O)NCc1ccccc1)c1ccccc1	5.54
CC1CCCCC1NC(=O)c1nnc(Cc2ccc(Cl)cc2)o1 (centres unmarked)	-9.72
O=C(Nc1ccccn1)c1ccc(S(=O)(=O)N2CCCCC2)cc1	0.489

Compound	hERG current change (%, negative = inhibition) at 10uM [%]
O=C(Cn1cc(Br)ccc1=O)Nc1ccc2c(c1)OCO2	22
O=C(N/N=C/c1ccco1)c1cc(-c2ccccc2)nc2ccccc12	2.45
CC1=CC(C)=[NH+]c2ccc(C)cc2N1.[Cl-]	-6.12
O=C(c1noc2c1CCCC2)N1CCN(Cc2ccccc2)CC1	-0.531
CCC(C)Sc1nc2c(cnn2-c2ccc(C)c(C)c2)c(=O)[nH]1 (centres unmarked)	-13.6
OCc1cn(-c2ccccc2)nc1-c1ccc(Br)cc1	13.1
CCCC(=O)Nc1ccc(N2CCN(C(=O)c3cccs3)CC2)cc1	-49.2
CCOc1cccc(C(=O)Nc2cccnc2)c1	4.13
O=C(O)c1ccc(N=Cc2c(O)ccc3ccccc23)cc1	1.85
CN(C)S(=O)(=O)c1cc(C(=O)NCC2CCCO2)c(Cl)cc1Cl (centres unmarked)	11.1
CCCCS(=O)(=O)N1C2=NC(C(=O)OC)=C(C(=O)OC)[C@@H]3N(C)c4ccc(OC)cc4[C@]23C[C@H]1C(=O)OC	-28.9
Cc1ccccc1OCC(=O)NCCNC(=O)c1cccnc1	19
O=C(CNCC1CCCO1)Nc1ccc(N2CCCCCC2)cc1.O=C(O)C(=O)O (centres unmarked)	-31.9
Cc1cc(C=O)c(C)n1-c1sc2c(c1C(=O)O)CCCC2	6.33
COc1cc(OC)cc(C(=O)N2CCN(Cc3ccc4c(c3)OCO4)CC2)c1.O=C(O)C(=O)O	-9.72
O=C(CN1CCN(c2ccccc2)CC1)c1ccc2cc[nH]c2c1	11.4
Cc1ccc(S(=O)(=O)N2CCCC(C(=O)NC3CCCC3)C2)cc1Cl (centres unmarked)	17.8
COc1ccc(NC(=O)OCCN2CCN(Cc3ccccc3)CCC2=O)cc1	-9.25
Cc1cc2c(c(=O)n1Cc1cccnc1)C(c1ccc(F)cc1)C(C#N)=C(N)O2 (centres unmarked)	0.0836

Compound	hERG current change (%, negative = inhibition) at 10uM [%]
O=[N+]([O-])c1ccc(N2CCN(C(=S)c3cccc([N+](=O)[O-])c3)CC2)cc1	-48.5
O=c1[nH]nc2c3ccccc3cnn12	1.32
CCCCn1c(O)c(C(C)=NCCN2CCCCC2)c(=O)[nH]c1=O	-21.7
COc1ccc(C(=O)N2CCN(C(=O)c3ccncc3)CC2)cc1	12.4
COc1ccc(/C=N/NC(=O)C(=O)NCc2cccnc2)cc1OC	-7.01
O=S(=O)(c1cc(Cl)ccc1Cl)N1CCN(c2ccccn2)CC1	-20.6
Cc1ccc(CC(=O)Nc2ccc(S(=O)(=O)N3CCOCC3)cc2)cc1	5.32
C/C(CC(=O)Nc1ccccn1)=N\NC(=O)c1ccc(C)cc1	-2.2
C=CCN(C(=O)CNC(=O)c1ccco1)C(C(=O)NC1CCCCC1)c1ccc(OC)cc1 (centres unmarked)	-4
COc1cc(OC)c(C2C(C#N)=C(N)OC3=C2C(=O)CC(C)(C)C3)cc1OC (centres unmarked)	-1.73
Cc1cccc(C(=O)Nc2ccc(N3CCN(C(=O)c4ccco4)CC3)cc2)c1	5.03
COc1ccc(NC(=S)c2ccc3ccccc3n2)cc1	29
Cc1nc2c(-c3ccc(F)cc3)cnn2c(N)c1-c1ccccc1	15
O=C(N/N=C1\CC(c2ccccc2)Oc2ccccc21)c1ccccn1 (centres unmarked)	11.7
CCn1c(SCC(=O)N/N=C/c2c[nH]c3ccccc23)nnc1-c1ccc(Cl)cc1	-18.4
CN(C)C(=O)Oc1ccc(Br)c2ccccc12	-6
CNC(=O)c1cccn(Cc2cccc(C(F)(F)F)c2)c1=O	9.39
O=C(/C=C/c1ccc(F)cc1)Nc1ccc(S(=O)(=O)Nc2ncccn2)cc1	8.21
